The test has as its system NCI-H322M lung. The test can be described thus: DTP human tumour cell line panel, 48 h.

Values joined by “and” are separate entries in the source; they are usually repeats but may differ in a detail not shown here. Equal values may be shown once.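 Exposure lasted 48 hours, with cells grown in 96-well plates and compounds tested at five concentrations. Abbreviation: GI50, concentration required for 50% inhibition of growth. TGI denotes the concentration required for complete inhibition of growth.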 Some results are limits rather than exact numbers.

For orientation: TGI means the concentration giving total growth inhibition. One may read the GI50 as the concentration that inhibits growth by half.

In the case of `CCCCCc1cc(CCCC)sc1-c1ccco1`, the concentration for total growth inhibition (TGI) was above 100 µM. On to `CC[C@H](C)[C@H](NC(=O)N[C@@H](C)c1ccccc1)C(=O)N(C)[C@H](C[C@@H](OC(C)=O)c1nc(C(=O)N[C@@H](Cc2ccccc2)C[C@H](C)C(=O)OC)cs1)C(C)C`, for which the GI50 was 45 µM and the TGI is above 100 µM. As for `O=C(O)C(Cc1c[nH]c2ccccc12)N1C(=O)c2ccccc2C1=O` (stereo not drawn), the TGI was above 100 µM. On to `O=C1c2c(O)ccc(O)c2C(=O)c2c(NCCNCCO)ccc(NCCNCCO)c21`, for which the TGI is 2.73 µM and 1.69 µM and 2.56 µM. Compound `COc1cc(/C=C2/C(=O)N(C(=O)c3ccccc3O)N=C2C)ccc1O` had a TGI above 100 µM. The compound `CC(C)NC(=O)OCc1c(COC(=O)NC(C)C)n(C)c2c1ccc1cc(Cl)c(Cl)cc12` had a TGI of 35.5 µM.

The compound `COC(=O)Cc1c2n(c3ccccc13)C(=O)N1c3ccccc3C(CC(=O)OC)C21` (stereo not drawn) displayed a TGI above 100 µM. Same read-out and setting: with `O/N=C/[C@H]1COC2(CCCCC2)O1` the figure was above 100 µM; with `N=C(N)SCC(=O)O`, above 100 µM; with `O=C1c2c(Br)sc(Br)c2[C@H]2OC(=S)N[C@@H]12`, 29 µM. As for `O=C(Nc1cccc(Cl)c1)c1cc(Cl)ccc1O`, the GI50 was 0.581 µM and the TGI came out at 6.85 µM.

The compound `O=c1ccn([C@@H]2C=C(CO)[C@@H](O)[C@H]2O)c(=O)[nH]1` displayed a total growth inhibition concentration (TGI) above 625 µM. Turning to `Cc1cc(C(=O)Nc2cc(Nc3ncccc3-c3ncnc4nc[nH]c34)ccc2F)cc(C(C)(C)C#N)c1`, the GI50 is 3.95 µM and the TGI was above 100 µM. `Cc1ccc2nc(Nc3ccccc3C)c(Nc3ccccc3C)nc2c1` yielded a TGI above 100 µM. For the compound `COc1ccc(C2NC(=S)NC3=C2COc2ccc(F)cc23)cc1OC` (stereo not drawn), the GI50 is 29 µM and the TGI is above 100 µM.

In the case of `Cc1ccc2c(C(C[N+](=O)[O-])c3ccco3)c(-c3ccccc3)[nH]c2c1` (stereo not drawn), the GI50 is above 100 µM and the total growth inhibition concentration (TGI) is above 100 µM. `CCCC/C=C1\CCC(CN2CCCC2)C1=O` (stereo not drawn): the TGI was determined as 31.8 µM. For `Cc1cc(S(N)(=O)=O)c(S/C(=N\NS(=O)(=O)c2ccccc2)c2ccc(Cl)c(Cl)c2)cc1Cl`, the GI50 is 66.8 µM and the concentration for total growth inhibition (TGI) was above 100 µM. With `CC1=CC(O)CC(C)(C)C1/C=C/C(C)=C/C=C/C(C)=C/C=C/C=C(C)/C=C/C=C(C)/C=C/C1=C(C)CC(O)CC1(C)C` (stereo not drawn), the total growth inhibition concentration (TGI) was above 100 µM. As to `COc1cc2c3c(c1OC)/C(=N/OS(=O)(=O)c1ccc(C)cc1)CC3N(S(=O)(=O)c1ccc(C)cc1)CC2` (stereo not drawn), the TGI is above 100 µM. With `NC(=O)c1c(NC(=O)c2cccc(C(F)(F)F)c2)sc2c1CCC(=O)C2`, the GI50 is above 23 µM and the concentration for total growth inhibition (TGI) is above 100 µM. `Clc1sc(Cl)c2c1[C@H](Br)C[C@@H]2Cl`: the TGI was above 100 µM.

The compound `C=C[C@@]1(C)CC(=O)[C@]2(O)[C@@]3(C)[C@@H](O)CCC(C)(C)[C@@H]3[C@H](O)[C@@H](OC(C)=O)[C@@]2(C)O1` displayed a concentration for total growth inhibition (TGI) above 100 µM. Still for that read-out and setting: with `O=c1/c(=C/c2ccc3c(c2)OCO3)sc2nnc(Cc3ccccc3)n12` the figure was above 100 µM. `CCCCCCCCCCCCNC(=O)[C@H]1CSC(c2ccsc2)N1` (stereo partly drawn): the GI50 was 2.29 µM and the total growth inhibition concentration (TGI) was found to be 7.93 µM.

Regarding `Fc1cccc(F)c1C1SCc2nc3cc(Cl)ccc3n21` (stereo not drawn), the TGI was above 100 µM. Compound `Brc1ccc2[nH]cc(-c3csc(-c4c[nH]c5ccc(Br)cc45)n3)c2c1` yielded a TGI of 5.68 µM. As to `COc1ccc2[nH]c3c(C)c4cc[n+](COC(=O)c5ccccc5)cc4c(C)c3c2c1`, the concentration for total growth inhibition (TGI) amounted to 5.68 µM. With `C=C1C[C@@H]2CC[C@@]34CC5O[C@H]6C(O[C@H]7CC[C@H](CC(=O)O[C@@H]8[C@@H](C)[C@@H]9O[C@@H]%10C[C@]%11(C[C@@H]%12O[C@]%13(C[C@H](C)[C@@H]%14O[C@@H]%15CC(C(COC(C)=O)OC(C)=O)O[C@@H]%15C[C@@H]%14O%13)C[C@H](C)[C@@H]%12O%11)O[C@@H]%10C[C@@H]9O[C@H]8CC8O[C@@H](CC[C@@H]1O2)C[C@@H](C)C8(O)CO)O[C@@H]7[C@@H]6O3)[C@H]5O4` (stereo partly drawn), the TGI was above 0.834 µM. `CCOC(=O)C(NC(=O)CC)(Nc1ccccc1F)C(F)(F)F` (stereo not drawn): the TGI is above 100 µM. As for `C/C(N=NC(=S)N1CCCCCC1)=C1\C=CC=CN1O`, the TGI turned out to be 98.6 µM. In the case of `CNc1ccc(N=Nc2cccc3ncccc23)cc1`, the GI50 is above 80.8 µM and the TGI is above 100 µM. The compound `CC(Br)CN(CC(C)Br)c1ccc2c(c1)Cc1ccccc1-2` (stereo not drawn) displayed a TGI of 31.7 µM. The compound `CN(C)CCN1C(=O)N(CCN(C)C)c2c3cc(O)ccc3nc3c([N+](=O)[O-])ccc1c23` came in with a TGI of 23.9 µM. Consider `CC(C)(C)c1cc(C(=O)O)c(C(c2ccccc2)c2ccccc2C(=O)O)c(C(=O)O)c1` (stereo not drawn), for which the TGI is above 100 µM. Turning to `NCCn1c2c(c3ccccc3c1=O)C(=O)c1ccccc1-2`, the GI50 was 0.939 µM and the concentration for total growth inhibition (TGI) came out at 3.68 µM. In the same order, the values of `COc1ccc(-c2nn3ncccc3c2-c2ccnc(Nc3cccc(C(F)(F)F)c3)n2)cc1` are 12.5 µM and above 25 µM. Regarding `N#Cc1ccnc(C(=O)N2CCCC2C(=O)O)c1` (stereo not drawn), the TGI is above 100 µM.

Regarding `CCOC(=O)/N=c1\ssc(Cl)c1Cl`, the GI50 is 12.7 µM and the concentration for total growth inhibition (TGI) stood at 29.6 µM.

Consider `O=C1Nc2ccc(Br)cc2C1=Nc1ccc(Cl)cc1`, for which the TGI was above 100 µM. For `COc1ccc(-c2nn(-c3cccc(Cl)c3)cc2/C=C2\C(=N)N(c3ccccc3)N=C2N)cc1`, the GI50 is 7.36 µM and the TGI is above 100 µM.

On to `C/C(=N\O)[C@H]1CC[C@@]2(C)[C@@H]3CC[C@H]4C(C)(C)/C(=N/O)CC[C@@]45CC35CC[C@]12C` (stereo partly drawn), for which the GI50 was 3.51 µM and the TGI worked out at 11.8 µM. The compound `CCOC(=O)c1c(-c2ccc(OC)cc2)c(C#N)c(=S)n(C2OC(CO)C(O)C(O)C2O)c1C` (stereo not drawn) displayed a TGI above 100 µM. For the compound `C(/C=C/N1CCCC1)=C\c1nc(N2CCCC2)c2ccccc2n1`, the total growth inhibition concentration (TGI) is above 100 µM.

`CO[C@H](C)[C@](O)(C(=O)OCC1=CCN2CC[C@@H](O)[C@H]12)C(C)C`: the TGI is above 100 µM.

For `COc1cc2c(c(OC)c1OC)-c1ccc(SC)c(=O)cc1[C@@H](NC(=O)c1ccc(F)cc1)CC2`, the GI50 is below 0.01 µM and the TGI amounted to 42.4 µM. Turning to `O=C(O)CCSc1ncnc2nc[nH]c12`, the total growth inhibition concentration (TGI) is above 100 µM. Same read-out and setting: the value for `BrC(Br)([P+](c1ccccc1)(c1ccccc1)c1ccccc1)[P+](c1ccccc1)(c1ccccc1)c1ccccc1` was above 100 µM; that for `O=C1c2cccnc2C(=O)c2c1nc1ccccc1c2-c1ccc2c3c(nc4ccccc42)C(=O)c2cccnc2-c13` was 4.57 µM.

With `COc1cc(/C=C2\C(=O)Nc3ccc(Br)cc32)cc(OC)c1OC`, the GI50 was 3.21 µM and the TGI is above 78.7 µM.

With `Cc1cc([C@H](C)Nc2nccc(N3C(=O)OC[C@@H]3[C@H](C)F)n2)ncc1-c1ccnc(C(F)(F)F)c1`, the GI50 is above 100 µM and the TGI is above 100 µM. The compound `CC1=NN(c2cccc(Cl)c2)C2(C1=Cc1ccc(N(C)C)cc1)C(Cl)C(=O)N2c1nc2ccccc2s1` (stereo not drawn) yielded a concentration for total growth inhibition (TGI) above 100 µM. `O=c1[nH]nc(-c2ccc([N+](=O)[O-])cc2)[nH]1` came in with a TGI above 100 µM.

Take `NC(=O)c1ncn(C2OC(CO)C(O)C2O)c1NC(=S)NC(=O)c1ccccc1` (stereo not drawn): the concentration for total growth inhibition (TGI) is above 100 µM. Regarding `CC1=[N+]([O-])C2(CCCC2)N(O)C1(C)C`, the TGI was above 100 µM. As for `O=C1Cc2ccccc2CCc2ccccc21`, the concentration for total growth inhibition (TGI) was above 100 µM.

The values are drawn from PubChem BioAssay (NCI).
